This is one part of the list.
tested on: PfAP2-HC AP2 domain (GST-tagged); assay: gcPBM binding intensity (ln(normalized median fluorescence intensity)); higher = stronger DNA binding
Outline: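 Probes on an Agilent 4 × 180k array were primer-extended, double-stranded and 36 bp long, taken from intergenic genomic regions, with negative controls added. GST-tagged P. falciparum DNA-binding domains from E. coli, about 25 μg on average, were applied to the array for 1 h in 1× PBS containing 1% milk, 0.2 mg/ml BSA, 0.5% salmon testes DNA and 0.03% Triton X-100. Binding intensity, obtained after Alexa488 anti-GST antibody detection and a 488 nm scan, is the highest Masliner-normalised natural-log median intensity across replicate spots of either probe orientation.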

Sequence | gcPBM binding intensity (ln)
CAACAACAAAAAAAAAAATAATAATAATAAAAAATA [TGCATGCA_negctrl_site271] | 9.5
TTCCTATTTCCTATGTGTACTTATAAATAAGTGTCT [XGTACX_site3725] | 9.73
GAAATTATAAATTGGACACACACATAAAAAATATGT [CACACA_site7957] | 10.1
TCCGCATGTACATGGGTGCACATAACACCCATTTAA [GTGCAC_site9881] | 9.45
TAAATGTCTGTTAATGCACACGATATGTCTATATAT [CACACA_site2352] | 9.88
CTTTCTATATAAAATCGTACATATATAATATTATAT [XGTACX_site5807] | 9.67
TATATTAAGAAACACACACACATATATATATATATA [CACACA_site1609] | 10
CTAACACTAATTTTTTGTACACAATATGTAAATAAA [XGTACX_site6424] | 9.57
ATTTTTACATAGGAAGCATGCATATTTTAAAAATAA [TGCATGCA_site1046] | 9.51
TTATTTCTGAATATTTTTTTTTTTTCTTCTTTTTTA [CACACA_negctrl_site815] | 9.45
CATGTGTTCTATATTTATGTCTAACTTTTTAATTAA [CACACA_negctrl_site904] | 9.72
TAATTTTTTAAATTTAAACACACATTTTGTATATGT [CACACA_site8479] | 9.99
TGATACGTATTTATTTCACACACGTTAAAAAAATAA [CACACA_site3914] | 9.65
TATATATATATATATTGTACGAACCTTTTTTTTTTT [XGTACX_site4169] | 9.37
TATAAATTTTTATTTACATGCAGTTATTATTTCCAT [TGCATGCA_site41] | 9.8
TATTAAAAGGTTAAAGCATGCATACATATATATGTT [TGCATGCA_site865] | 9.61
TTTTTGTTACCTATTGTGCACTTCATATAAATTAAA | 9.74
AATAATAAATAAAAATGTACACATACATTTCTATCC [XGTACX_site7057] | 9.68
ATATATATATATATATGTACATATTTATATTGTAAA [XGTACX_site8878] | 9.71
TAATGTAATACATATTGTACACATACATATATATTT [XGTACX_site7531] | 9.57
ATATATAATCATCACACATGCAGCCCTGATGAAAAA [TGCATGCA_site687] | 9.76
GGGTATACCAATATAACACACATATATCTATAATAT [CACACA_site6348] | 9.85
AGAAAGTAAAGCTGTTGTACTATTATATATATTTTA [XGTACX_site8090] | 9.67
GTAATACCCAAACACACACACATACCCATATATATA [CACACA_site5510] | 10.7
TATAATATGTATATCTGTACATATTTTAAATCTAAT [XGTACX_site2426] | 9.5

— the supplement of paper PMC11417369
